Assay results reported in PubChem BioAssay AID1159614 (National Center for Advancing Translational Sciences (NCATS), 2016).
The whole screen tested about 45,000 compounds, of which about 65 (0.1%) were called active. Calls follow the shape of the dose curve; as a rule, active = well fitted activation curve with a large enough effect; inconclusive = small, poorly fitted or top-dose-only effect; inactive = no such curve, though single readings can be large or run the other way. The list shows a part of the results.
Also: nearly all actives have a fitted effect of over 65% in size.
For activation in this document: 0% is about no effect.
Potency is read from the fitted curve at half-maximal effect.

The compounds below were run against Galactocerebrosidase (Homo sapiens) (UniProt P54803) (assay: A Novel Cell-Based Assay to Identify Small Molecules for B -Galactocerebrosidase). Conditions: 145M-Twi-hGALC-G270D cells (Twitcher mouse brain line with human GALC G270D), HMU-beta-Gal fluorescence, 48 h; series mostly up to 57.5 µM; activation: at the top concentration.
Chain of UniProt P54803 (P54803 whole entry, looked up): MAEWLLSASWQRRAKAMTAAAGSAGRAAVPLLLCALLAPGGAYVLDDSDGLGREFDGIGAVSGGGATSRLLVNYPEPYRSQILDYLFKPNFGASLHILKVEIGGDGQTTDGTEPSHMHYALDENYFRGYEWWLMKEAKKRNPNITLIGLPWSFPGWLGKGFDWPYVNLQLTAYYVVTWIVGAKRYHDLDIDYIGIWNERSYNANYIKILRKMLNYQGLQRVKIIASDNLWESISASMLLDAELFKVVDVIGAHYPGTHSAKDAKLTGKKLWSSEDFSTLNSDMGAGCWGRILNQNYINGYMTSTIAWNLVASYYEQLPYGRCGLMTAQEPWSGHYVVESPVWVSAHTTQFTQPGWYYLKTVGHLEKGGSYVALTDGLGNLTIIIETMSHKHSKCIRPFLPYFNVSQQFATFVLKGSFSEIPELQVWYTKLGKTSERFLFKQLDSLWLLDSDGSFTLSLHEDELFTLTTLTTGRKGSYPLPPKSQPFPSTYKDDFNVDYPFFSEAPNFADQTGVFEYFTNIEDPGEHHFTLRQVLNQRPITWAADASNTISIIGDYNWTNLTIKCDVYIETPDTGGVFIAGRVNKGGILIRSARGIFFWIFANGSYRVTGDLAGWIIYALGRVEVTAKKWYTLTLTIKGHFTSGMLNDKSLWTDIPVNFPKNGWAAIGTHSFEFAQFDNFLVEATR
Outline: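 Brain-derived Twitcher mouse 145M-Twi cells stably expressing human GALC-G270D or wild-type GALC, treated live, then residual GALC activity read by fluorescence of HMU-b-Gal substrate (0.1 mM final) in citrate-phosphate buffer pH 5.2 with sodium taurocholate. Signal increase indicates enhancement.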
For `CCc1ccccc1NC(=O)Nc1cc(C(=O)NCc2cccc(F)c2)ccc1N1CCCC1`, the “activation” value was inactive: 0.426%. `CSc1cccc(NC(=O)Cn2c(=O)n(Cc3ccccc3)c(=O)c3sc4ccccc4c32)c1` was tested, and the “activation” value was inactive: -8.89%. With `CC(=O)Nc1cc(C(=O)NCc2ccc(C)cc2)ccc1S(=O)(=O)c1ccc(Cl)cc1` the “activation” value was inactive: -11%. `CCOC(=O)CN1C(C(=O)c2ccccc2)=C(OC(=O)C(C)(C)C)c2ccccc2S1(=O)=O` was tested, and the “activation” value was inactive: -9.39%. `CCn1c(SCc2cccc(Br)c2)nnc1-c1nonc1NC(C)=O` was tested, and the “activation” value was inactive: -1.35%. In the case of `CC(C)CNC(=O)C(=O)Nc1c2c(nn1-c1ccccc1)CS(=O)(=O)C2`, the “activation” value is reported as inactive: -12.2%. With `CCn1ccc2cc(S(=O)(=O)N3CCC(C(=O)NCc4cccc(Cl)c4)CC3)ccc21` the “activation” value was inactive: -11.9%. With `Cc1cc(C)c(NC(=O)c2cc(S(=O)(=O)NCCC3=CCCCC3)ccc2F)c(C)c1` the “activation” value was inactive: -2.05%. With `Cc1ccc(-n2ncc(C(=O)NCCN3CCCC3)c2C2CCN(C(=O)OC(C)(C)C)CC2)cc1` the “activation” value was inactive: 0.992%. For `Cc1cc(C)n(-c2nc3cc(Cl)ccc3nc2Nc2ccc(C)c(F)c2)n1`, the “activation” value was inactive: -2.68%. For `COc1ccc(Cn2c(CCC(=O)Nc3ccc(C)cc3)nc3cccnc32)cc1`, the “activation” value was inactive: -9.44%. `Cc1ccc(NC(=O)Cn2nnc3sc4c(c3c2=O)CCC(C)C4)cc1` (configuration not stated) was tested, and the “activation” value was inactive: -4.64%. `CCOc1ccccc1NC(=O)N1c2ccccc2Sc2ccccc21` was tested, and the “activation” value was inactive: 1.33%. For `Cc1cccc(-n2ncc(C(=O)N3CCN(Cc4ccccc4)CC3)c2C2CCN(C(=O)OC(C)(C)C)CC2)c1`, the “activation” value was inactive: -11.5%. For `CCOc1ccc(N(C)S(=O)(=O)c2c(C(=O)N3CCC(C)CC3)c(C)n(C)c2C)cc1`, the “activation” value was inactive: -7.87%. In the case of `Cc1ccc2oc(C(=O)Nc3ccc(S(=O)(=O)N(C)c4ccccc4)cc3)cc(=O)c2c1`, the “activation” value is reported as inactive: -20.3%. For `Cc1cc(NC(=O)Nc2nnc(N(C)C3CCCCC3)s2)ccc1Br`, the “activation” value was inactive: -12.5%. `COc1ccc(C(=O)N2CCC(c3nc4ccccc4s3)CC2)cc1Cl` was tested, and the “activation” value was inactive: -23.6%. `CCc1ccc(NCc2cc3cc4c(cc3n(CC(=O)Nc3ccccc3OC)c2=O)OCCO4)cc1` was tested, and the “activation” value was inactive: -1.72%. For `Cc1nn(-c2ccccc2)c2c1cc1c(=O)[nH]c(=O)nc-1n2-c1cccc(Cl)c1`, the “activation” value was inactive: -13.5%. For `COc1ccccc1/C=C/c1nc(C#N)c(N2CCN(C)CC2)o1`, the Potency was active: 28.2 µM. `COc1ccccc1NC(=O)CSc1nnc(NC(=O)NC2CCCCC2)s1` was tested, and the “activation” value was inactive: -13.4%. In the case of `Cc1ccc(CNC(=O)C2CCN(S(=O)(=O)c3cccc4nonc34)CC2)cc1`, the “activation” value is reported as inactive: -0.17%. `Cc1cc(=O)c2cc(C(=O)Nc3ccc(C)c(C)c3)ccc2[nH]1` was tested, and the “activation” value was inactive: -15.3%. With `CCc1ccccc1NC(=O)Cn1c(=O)n(CCCCCC(=O)NCc2ccc(C)cc2)c(=O)c2sccc21` the “activation” value was inactive: 1.2%. For `CCOC(=O)O[C@]1(C(=O)OCCl)CC[C@H]2[C@@H]3CCC4=CC(=O)C=C[C@]4(C)[C@H]3[C@@H](O)C[C@@]21C`, the “activation” value was inactive: -19.7%. `CN(C)[C@@H]1C(=O)C(C(N)=O)=C(O)[C@@]2(O)C(=O)C3=C(O)c4c(O)cccc4C[C@H]3C[C@@H]12` was tested, and the “activation” value was inactive: -16.8%. `O=C(c1ccc2c(c1)N(Cc1ccccc1F)C(=O)c1ccccc1S2(=O)=O)N1CCc2ccccc21` was tested, and the “activation” value was inactive: 2.67%. In the case of `CCC(Sc1nc2ccncc2[nH]1)C(=O)Nc1cc(Cl)ccc1C` (configuration not stated), the “activation” value is reported as inactive: -9.19%. For `COc1cc(Cl)c(C)cc1NC(=O)CSc1nc2c(c(=O)[nH]1)CCC2`, the “activation” value was inactive: -15.1%. For `Cc1ccc(S(=O)(=O)CCC(=O)Nc2ccc(OC(F)(F)F)cc2)cc1`, the “activation” value was inactive: -6.08%. For `Cc1cccc(NC(=O)Cn2ncc3c4ccccc4n(Cc4ccccc4)c3c2=O)c1C`, the “activation” value was inactive: -21%. With `CN1C(=O)c2ccccc2C1=O` the “activation” value was inactive: -6.53% [at 114 µM]. For `CC(CC1c2ccccc2CCc2ccccc21)CN(C)C` (configuration not stated), the “activation” value was inactive: -19%. For `CCc1ccc(S(=O)(=O)c2nnn3c2nc(N2CCOCC2)c2sccc23)cc1`, the “activation” value was inactive: -13.3%. In the case of `Cc1cc(-c2ccccc2)n2nc(-c3ccc(Cl)cc3)cc2n1`, the “activation” value is reported as inactive: -16.6%. With `Cc1cc(Br)ccc1NC(=O)C1CCCN(S(=O)(=O)c2cccc3nonc23)C1` (configuration not stated) the “activation” value was inactive: -19.9%. For `Cc1cc(N2CCC(C(=O)Nc3ccc(F)cc3C)CC2)n2nc(C)c(-c3ccc(Cl)cc3)c2n1`, the “activation” value was inactive: -7.44%. With `Cc1ccc(N2CC(c3nc(-c4ccc(Cl)cc4)no3)CC2=O)cc1F` (configuration not stated) the “activation” value was inactive: -17.8%. For `CC(=O)c1cccc(NS(=O)(=O)c2cc(-c3onc(C)c3C)ccc2C)c1`, the “activation” value was inactive: -41%. For `COc1ccc(NC(=O)CSc2oc(-c3ccc(F)cc3)nc2S(=O)(=O)c2ccc(C)cc2)c(OC)c1`, the “activation” value was inactive: -8.82%. With `Cc1sc2c(c1C)c(=O)n(-c1ccc(Cl)cc1)c(=O)n2Cc1cc(=O)n2cc(Br)ccc2n1` the “activation” value was inactive: -10.7%. With `COc1cc(Cl)c(NC(=O)c2cc(S(=O)(=O)N3CCCCC3)c[nH]2)c(OC)c1` the “activation” value was inactive: -20.8%. `COc1ccc2cc3cc(C(=O)Nc4cc(C)c(Cl)cc4OC)oc3nc2c1` was tested, and the “activation” value was inactive: -0.0005%. With `CCc1cccc(CC)c1NC(=O)C1CCC(CNS(=O)(=O)c2cccc3nsnc23)CC1` (configuration not stated) the “activation” value was inactive: -13.2%. For `CCOc1ccccc1NC(=O)CSc1nc2c(sc3ccccc32)c(=O)n1CCCC(=O)NC1CCCC1`, the “activation” value was inactive: -10.7%. With `COc1cc(NC(=O)C2CCN(S(=O)(=O)c3ccc4c(c3)CCCC(=O)N4)CC2)cc(OC)c1` the “activation” value was inactive: -16%. `CCOC(=O)c1c(S(=O)(=O)N2CCCC(C(=O)NCc3ccccc3Cl)C2)c(C)n(C)c1C` (configuration not stated) was tested, and the “activation” value was inactive: -7.61%. For `Cc1cccc(OCc2nc(CC(=O)Nc3ccc(C)cc3C)cs2)c1`, the “activation” value was inactive: -4.65%. With `Cc1cccc(N2CCN(C(=O)c3cnn(-c4ccccc4Cl)c3C3CCN(C(=O)OC(C)(C)C)CC3)CC2C)c1` (configuration not stated) the “activation” value was inactive: -15.1%. In the case of `CCN(c1ccccc1)S(=O)(=O)c1nnc(NC(=O)c2ccccc2)s1`, the “activation” value is reported as inactive: 3.67%. With `COc1cccc(CNC(=O)c2ccc(CNS(=O)(=O)c3ccc(C)cc3)cc2)c1` the “activation” value was inactive: -37.8%. With `O=C(Nc1ccccc1)N(Cc1c[nH]c2ccccc12)C1CCCCCC1` the “activation” value was inactive: -11.7%. In the case of `CCOC(=O)c1c(NC(=O)c2cc(OCC)c(OCC)c(OCC)c2)sc2c1CCCCC2`, the “activation” value is reported as inactive: -12.7%. For `COc1ccc(-c2cc(C(=O)NC(C)c3ccccc3)c3cc(C(C)C)ccc3n2)cc1` (configuration not stated), the “activation” value was inactive: -13.1%. `Cc1ccc(CNC(=O)Cn2c(=O)ccc3cc(S(=O)(=O)N4CCC(C)CC4)ccc32)cc1` was tested, and the “activation” value was inactive: -16.2%. For `O=C(Nc1ccccc1C(F)(F)F)c1cc(-c2ccc3c(c2)OCCO3)on1`, the “activation” value was inactive: -0.127%. In the case of `CCN(CC)CCNC(=O)C(=O)NCC(c1cccnc1)N1CCN(c2ccc(F)cc2)CC1` (configuration not stated), the “activation” value is reported as inactive: -4.64%. With `CCc1ccc(C2c3c(oc4ccc(F)cc4c3=O)C(=O)N2CCc2ccc(OC)cc2)cc1` (configuration not stated) the “activation” value was inactive: -18.5%. With `COc1ccc(S(=O)(=O)NCCc2sc(-c3cccnc3)nc2C)c(F)c1` the “activation” value was inactive: -20.6%. With `CC1CCc2c(sc3nnn(CCCCOc4ccc(Cl)cc4)c(=O)c23)C1` (configuration not stated) the “activation” value was inactive: -14.1%. In the case of `COc1ccc(CNCCCSc2nnnn2-c2ccccc2)cc1`, the “activation” value is reported as inactive: -5.61%. `CCOCCCNC(=O)c1cc(Sc2cccc(Cl)c2)nc2ccccc12` was tested, and the “activation” value was inactive: -32.9%. With `COc1ccc(-c2cn3nc(N4CCCC(C(=O)Nc5cccc(OC)c5)C4)sc3n2)cc1` (configuration not stated) the “activation” value was inactive: -11.6%. `COc1cc2c(cc1OC)n(CC(=O)c1cccc(Cl)c1)c(=O)n1nc(CCn3nc(C)cc3C)nc21` was tested, and the “activation” value was inactive: -6.46%. `Cc1ccc(Nc2sc(C(=O)c3ccccc3)c(N)c2C(=O)Nc2ccc(Cl)cc2)cc1` was tested, and the “activation” value was inactive: 2.02%. For `Cc1ccc(CC(=O)Nc2ccc3c(c2)N(C)C(=O)c2ccccc2S3)cc1`, the “activation” value was inactive: -15.2%. With `O=C(NCc1cccnc1)C(=O)NCC(c1cccnc1)N1CCN(c2ccc(F)cc2)CC1` (configuration not stated) the “activation” value was inactive: -13.8%. For `COc1cccc(C(=O)N2c3ccc(C)cc3C(C)(c3ccccc3)CC2(C)C)c1` (configuration not stated), the “activation” value was inactive: 6.4%. With `COc1ccc(C2NC(=O)NC(C)=C2C(=O)Nc2ccccc2)cc1OC` (configuration not stated) the “activation” value was inactive: 14.4%. For `Cc1ccccc1C(=O)Nc1sc2c(c1C(=O)N1CCCCC1)CCC(C)C2` (configuration not stated), the “activation” value was inactive: -9.46%. For `O=C(CCN1C(=O)c2ccccc2Sc2ncccc21)Nc1ccc(F)cc1F`, the “activation” value was inactive: 7.19%. With `CC(C)c1ccc(NC(=O)Cn2cc(S(=O)(=O)Cc3cccc(Cl)c3)c3ccccc32)cc1` the “activation” value was inactive: -8.62%. With `O=C(CCS(=O)(=O)c1nc(-c2cccs2)cc(C(F)(F)F)n1)Nc1cc(Br)ccc1O` the “activation” value was inactive: -11.2%. For `CCCOc1ccc(C(=O)Nc2ccc3oc(-c4cccc(Cl)c4Cl)nc3c2)cc1`, the “activation” value was inactive: -12.9%. For `CCc1ccc(-c2cn3c(n2)sc2cc(C(=O)NCCC4=CCCCC4)ccc23)cc1`, the “activation” value was inactive: -17.3%. For `CCOC(=O)c1ccc(NC(=O)CSc2cn(CC(=O)N3CCCC3)c3ccccc23)cc1`, the “activation” value was inactive: -14.1%. In the case of `Cc1ccc(-c2nn3c(=O)cc(CN4CCN(C(=O)/C=C/c5ccccc5)CC4)nc3s2)cc1`, the “activation” value is reported as inactive: -10.8%. In the case of `CCOC(=O)c1ccc(NC(=O)C(Cc2ccccc2)N2Cc3ccccc3C2=O)cc1` (configuration not stated), the “activation” value is reported as inactive: -15.3%. In the case of `CCn1c(=O)c2sccc2n2c(CCCC(=O)N3CCN(c4cccc(Cl)c4)CC3)nnc12`, the “activation” value is reported as inactive: -18.6%. `Cc1ccc(-n2nc3c(N4CCCC(C(=O)NCc5ccc(Cl)cc5)C4)nnc(C)c3c2C)cc1` (configuration not stated) was tested, and the “activation” value was inactive: -4.33%. `COC(=O)c1ccc2c(c1)N(CC(=O)Nc1ccc(OC)c(Cl)c1)C(=O)c1ccccc1S2` was tested, and the “activation” value was inactive: -0.216%. With `CC(C)c1ccc(NC(=O)CSc2nc(=O)n(Cc3ccccn3)c3c2CCC3)cc1` the “activation” value was inactive: -5.49%. With `N#Cc1nc(COc2cccc(Cl)c2)oc1NCCc1ccccc1` the “activation” value was inactive: -5.58%. `CCCn1c(SCc2nc(-c3ccccc3OCC)no2)nnc1-c1ccc(Cl)cc1` was tested, and the “activation” value was inactive: -9.13%. With `CCOc1ccccc1C(=O)N(Cc1cc(OC)c(OC)c(OC)c1)c1ccccn1` the “activation” value was inactive: -10.7%. With `Cc1ccc(NC(=O)Cn2c(=O)n(Cc3nc(C)no3)c(=O)c3cc4c(cc32)OCO4)c(C)c1` the “activation” value was inactive: -6.6%. `Cc1sc2ncn(CC(=O)Nc3cccc(C(F)(F)F)c3)c(=O)c2c1S(=O)(=O)N1CCN(C)CC1` was tested, and the “activation” value was inactive: 3.2%. In the case of `CCOc1ccc(OCC(=O)NCCS(=O)(=O)N2CCN(c3ccccc3F)CC2)cc1`, the “activation” value is reported as inactive: -18.7%. With `COC(=O)CNC(=O)C1CCN(S(=O)(=O)c2cccc3nsnc23)CC1` the “activation” value was inactive: -7.38%. In the case of `Cc1ccc(C(=O)c2c(N)c(C(=O)Nc3ccccc3Cl)c3ccccn23)cc1`, the “activation” value is reported as inactive: -17.1%. With `Cc1ccc(CCNC(=O)c2ccc3c(c2)nc2n3CCCCC2)cc1` the “activation” value was inactive: 7.03%.
